# Results reported in the supplement of paper PMC8728848.
# Some of the results follow.
# Legend:
# Test in all cases: glycan array binding signal (z-score within array); higher = stronger binding
# Conditions in all cases: glycan notation: IUPAC condensed, linker removed
# [1] = molecular target: Fuc(a1-2)[Gal(a1-3)]Gal(b1-4)[Fuc(a1-3)]GlcNAc(b1-3)GalNAc
# In short: (§1)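 Glycan array data were curated from 3228 arrays in the Consortium for Functional Glycomics database and kept only where the protein sequence was available. Glycan names were converted to IUPAC-condensed notation, and columns mapping to the same glycan were averaged. The binding signal is a within-array Z-score, averaged across arrays of the same protein sequence at different concentrations or buffers and across linkers. Negative Z-scores can be read as non-binding.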
# [2] = molecular target: Fuc(a1-2)[Gal(a1-4)]Gal(b1-4)GlcNAc
# In short: as §1
# [3] = molecular target: Fuc(a1-2)[GalNAc(a1-3)]Gal
# In short: as §1
# [4] = molecular target: Fuc(a1-2)[GalNAc(a1-3)]Gal(b1-3)GalNAc(a1-3)[Fuc(a1-2)]Gal(b1-4)GlcNAc
# In short: as §1
# [5] = molecular target: Fuc(a1-2)[GalNAc(a1-3)]Gal(b1-3)GalNAc(b1-3)Gal(a1-4)Gal(b1-4)Glc
# In short: as §1
# [6] = molecular target: Fuc(a1-2)[GalNAc(a1-3)]Gal(b1-3)GlcNAc
# In short: as §1
# [7] = molecular target: Fuc(a1-2)[GalNAc(a1-3)]Gal(b1-3)GlcNAc(b1-2)Man(a1-3)[Fuc(a1-2)[GalNAc(a1-3)]Gal(b1-3)GlcNAc(b1-2)Man(a1-6)]Man(b1-4)GlcNAc(b1-4)GlcNAc
# In short: as §1
# [8] = molecular target: Fuc(a1-2)[GalNAc(a1-3)]Gal(b1-3)GlcNAc(b1-2)Man(a1-3)[Fuc(a1-2)[GalNAc(a1-3)]Gal(b1-3)GlcNAc(b1-2)Man(a1-6)]Man(b1-4)GlcNAc(b1-4)[Fuc(a1-6)]GlcNAc
# In short: as §1
# [9] = molecular target: Fuc(a1-2)[GalNAc(a1-3)]Gal(b1-3)GlcNAc(b1-3)GalNAc
# In short: as §1
# [10] = molecular target: Fuc(a1-2)[GalNAc(a1-3)]Gal(b1-3)GlcNAc(b1-6)GalNAc
# In short: as §1
# [11] = molecular target: Fuc(a1-2)[GalNAc(a1-3)]Gal(b1-4)Glc
# In short: as §1
# [12] = molecular target: Fuc(a1-2)[GalNAc(a1-3)]Gal(b1-4)GlcNAc
# In short: as §1
# [13] = molecular target: Fuc(a1-2)[GalNAc(a1-3)]Gal(b1-4)GlcNAc(b1-2)Man
# In short: as §1
# [14] = molecular target: Fuc(a1-2)[GalNAc(a1-3)]Gal(b1-4)GlcNAc(b1-2)Man(a1-3)[Fuc(a1-2)[GalNAc(a1-3)]Gal(b1-4)GlcNAc(b1-2)Man(a1-6)]Man(b1-4)GlcNAc(b1-4)GlcNAc
# In short: as §1
# [15] = molecular target: Fuc(a1-2)[GalNAc(a1-3)]Gal(b1-4)GlcNAc(b1-2)Man(a1-3)[Fuc(a1-2)[GalNAc(a1-3)]Gal(b1-4)GlcNAc(b1-2)Man(a1-6)]Man(b1-4)GlcNAc(b1-4)[Fuc(a1-6)]GlcNAc
# In short: as §1
# [16] = molecular target: Fuc(a1-2)[GalNAc(a1-3)]Gal(b1-4)GlcNAc(b1-3)Gal(b1-4)GlcNAc
# In short: as §1
# [17] = molecular target: Fuc(a1-2)[GalNAc(a1-3)]Gal(b1-4)GlcNAc(b1-3)Gal(b1-4)GlcNAc(b1-3)Gal(b1-4)GlcNAc
# In short: as §1
# [18] = molecular target: Fuc(a1-2)[GalNAc(a1-3)]Gal(b1-4)GlcNAc(b1-3)GalNAc
# In short: as §1
# [19] = molecular target: Fuc(a1-2)[GalNAc(a1-3)]Gal(b1-4)GlcNAc(b1-3)[Fuc(a1-2)[GalNAc(a1-3)]Gal(b1-4)GlcNAc(b1-6)]GalNAc
# In short: as §1
# [20] = molecular target: Fuc(a1-2)[GalNAc(a1-3)]Gal(b1-4)GlcNAc(b1-6)GalNAc
# In short: as §1
# [21] = molecular target: Fuc(a1-2)[GalNAc(a1-3)]Gal(b1-4)[Fuc(a1-3)]GlcNAc
# In short: as §1
# [22] = molecular target: Fuc(a1-2)[GalNAc(a1-3)]Gal(b1-4)[Fuc(a1-3)]GlcNAc(b1-3)GalNAc
# In short: as §1
# [23] = molecular target: Fuc(a1-2)[GalNAc(a1-4)]Gal(b1-4)GlcNAc
# In short: as §1
# [24] = molecular target: Fuc(a1-2)[GalNAc(b1-3)]Gal
# In short: as §1
# [25] = molecular target: Fuc(a1-3)GlcNAc
# In short: as §1
# [26] = molecular target: Fuc(a1-3)[Gal(b1-4)]Glc6S
# In short: as §1
# [27] = molecular target: Fuc(a1-3)[Gal(b1-4)]GlcNAc
# In short: as §1
# [28] = molecular target: Fuc(a1-3)[Gal(b1-4)]GlcNAc(b1-2)Man
# In short: as §1
# [29] = molecular target: Fuc(a1-3)[Gal(b1-4)]GlcNAc(b1-2)Man(a1-3)[Fuc(a1-3)[Gal(b1-4)]GlcNAc(b1-2)Man(a1-6)]Man(b1-4)GlcNAc(b1-4)GlcNAc
# In short: as §1
# [30] = molecular target: Fuc(a1-3)[Gal(b1-4)]GlcNAc(b1-2)Man(a1-3)[Fuc(a1-3)[Gal(b1-4)]GlcNAc(b1-2)Man(a1-6)]Man(b1-4)GlcNAc(b1-4)[Fuc(a1-6)]GlcNAc
# In short: as §1
# [31] = molecular target: Fuc(a1-3)[Gal(b1-4)]GlcNAc(b1-3)Gal(b1-3)[Fuc(a1-4)]GlcNAc
# In short: as §1
# [32] = molecular target: Fuc(a1-3)[Gal(b1-4)]GlcNAc(b1-3)Gal(b1-4)[Fuc(a1-3)]GlcNAc
# In short: as §1
# [33] = molecular target: Fuc(a1-3)[Gal(b1-4)]GlcNAc(b1-3)Gal(b1-4)[Fuc(a1-3)]GlcNAc(b1-3)Gal(b1-4)[Fuc(a1-3)]GlcNAc
# In short: as §1
# [34] = molecular target: Fuc(a1-3)[Gal(b1-4)]GlcNAc(b1-3)GalNAc
# In short: as §1
# [35] = molecular target: Fuc(a1-3)[Gal(b1-4)]GlcNAc(b1-6)GalNAc
# In short: as §1
# [36] = molecular target: Fuc(a1-3)[Gal(b1-4)]GlcNAc(b1-6)[Gal(b1-3)GlcNAc(b1-3)]Gal(b1-4)Glc
# In short: as §1
# [37] = molecular target: Fuc(a1-3)[Gal(b1-4)]GlcNAc6S
# In short: as §1
# [38] = molecular target: Fuc(a1-3)[Gal3S(b1-4)]Glc
# In short: as §1
binder,measurement,setting,value
Epa23 (Candida glabrata) (protein) MGSSHHHHHHSSGLVPRGSHMIPNPFEGTINNFPSGCSPNHGLYNRGLTMELYNYSYIHPQSIQSYFNTSTLKKMEKGQCWDPSYLDVNYPRTGYKTHNRFAKVNGIDGILDFEFNPTRSCVPSKGQLPQNYNYPLQFTLSNFTMLLYGYFKPKVTAKHTFTIFADDLLFLNFGAGNAFDCCQQQDTIDDFGNYQAYALWGSDTQQNTLTVNLDANIYYPIRMFYNNRDFKGALNMYFTTDESNTKINDFSGYLFNIPDSSEGCPAHISYETECGNVSG,glycan array binding signal (z-score),[1],-0.204
same,glycan array binding signal (z-score),[2],-0.032
same,glycan array binding signal (z-score),[3],-0.153
same,glycan array binding signal (z-score),[4],-0.274
same,glycan array binding signal (z-score),[5],-0.214
same,glycan array binding signal (z-score),[6],-0.185
same,glycan array binding signal (z-score),[7],-0.207
same,glycan array binding signal (z-score),[8],-0.218
same,glycan array binding signal (z-score),[9],-0.229
same,glycan array binding signal (z-score),[10],-0.324
same,glycan array binding signal (z-score),[11],-0.234
same,glycan array binding signal (z-score),[12],-0.211
same,glycan array binding signal (z-score),[13],-0.251
same,glycan array binding signal (z-score),[14],-0.156
same,glycan array binding signal (z-score),[15],-0.24
same,glycan array binding signal (z-score),[16],-0.241
same,glycan array binding signal (z-score),[17],-0.114
same,glycan array binding signal (z-score),[18],-0.25
same,glycan array binding signal (z-score),[19],-0.177
same,glycan array binding signal (z-score),[20],-0.213
same,glycan array binding signal (z-score),[21],-0.207
same,glycan array binding signal (z-score),[22],-0.299
same,glycan array binding signal (z-score),[23],-0.207
same,glycan array binding signal (z-score),[24],-0.23
same,glycan array binding signal (z-score),[25],-0.214
same,glycan array binding signal (z-score),[26],-0.144
same,glycan array binding signal (z-score),[27],-0.11
same,glycan array binding signal (z-score),[28],-0.223
same,glycan array binding signal (z-score),[29],-0.1
same,glycan array binding signal (z-score),[30],-0.205
same,glycan array binding signal (z-score),[31],-0.249
same,glycan array binding signal (z-score),[32],-0.183
same,glycan array binding signal (z-score),[33],-0.177
same,glycan array binding signal (z-score),[34],-0.211
same,glycan array binding signal (z-score),[35],-0.174
same,glycan array binding signal (z-score),[36],-0.258
same,glycan array binding signal (z-score),[37],-0.074
same,glycan array binding signal (z-score),[38],-0.161
